Experimental findings from PubChem BioAssay AID1240 (Sanford-Burnham Center for Chemical Genomics, 2008) are described below.

Among all 50,000 compounds or so, about 800 (1.6%) showed an effect of 50% or more. Some of the results follow.

This assay has as its target Bcl-2-like protein 10 (Homo sapiens) (UniProt Q9HD36). Nature of the assay: Phenotype converters, Bcl-B/TR3 peptide binding displacement, primary biochemical FP (AID 1240).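 Further: 0% = Bcl-B with tracer peptide and DMSO and 100% = tracer peptide lacking Bcl-B.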 The conditions noted are these: GST-Bcl-B / FITC-TR3 peptide fluorescence polarization; stronger effect = higher value; compound at 3.75 mg/L.
UniProt Q9HD36, sequence (Q9HD36 whole entry, looked up): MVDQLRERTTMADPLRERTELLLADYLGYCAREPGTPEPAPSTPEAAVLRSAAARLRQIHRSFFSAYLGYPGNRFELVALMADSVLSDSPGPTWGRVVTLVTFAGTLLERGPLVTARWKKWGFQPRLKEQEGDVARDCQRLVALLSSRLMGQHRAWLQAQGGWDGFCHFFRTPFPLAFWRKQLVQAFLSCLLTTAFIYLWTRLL
Regarding `CC1CCCCN1C(=O)/C=C/c1ccc(F)cc1` (stereo not given), the displacement is 6.3%.

As for `COc1ccc2c(=O)c(-c3ccccc3OC)coc2c1`, the displacement came out at 11.8%.

On to `O=C(NCCOc1ccccc1F)c1ccccc1SCc1ccc(F)cc1`, for which the displacement was -5.2%.

Regarding `O=C(NCCO)c1ccc(CSc2nc3sc4c(c3c(=O)[nH]2)CCCC4)cc1`, the displacement amounted to 7.3%.

In the case of `O=C(COc1ccc(Br)cc1)NCc1ccc(F)cc1`, the displacement turned out to be 4.6%.

Regarding `O=C(c1ccccc1Cl)N1N=C(c2ccccc2)CC1(O)C(F)(F)F` (stereo not given), the displacement was -3.3%.

Take `Nn1c(-n2nc(-c3ccccc3)cc2-c2ccccc2)n[nH]c1=S`: the displacement was -20.2%.

With `CC1CCc2cc(F)ccc2N1C(=O)COc1ccc(Cl)cc1` (stereo not given), the displacement was -15.3%.

With `Clc1ccccc1C=Nc1ccc(-c2nnc(-c3ccccc3)o2)cc1`, the displacement came to 14.5%.

`CC(C)(Oc1ccc(CCNC(=O)c2ccc(-c3ccc(Cl)cc3)o2)cc1)C(=O)O`: the displacement was -7.6%.

For `COc1ccc(/C=C/C(=O)N2CCC(C)CC2)cc1Br`, the displacement came out at 13.2%.

For `COC(=O)c1ccccc1NC(=O)CN(c1ccc(C)cc1)S(=O)(=O)c1ccc(SC)cc1`, the displacement is -4.5%.

Regarding `COc1ccc(CC(=O)Nc2cccc(-c3nc4ccccc4s3)c2)cc1OC`, the displacement worked out at 0.3%.

For `COc1ccc(C(=O)Nc2cccc(NC(=O)c3ccccc3Br)c2)cc1[N+](=O)[O-]`, the displacement was determined as 4.7%.

As for `COc1ccccc1/C=C/C(=O)c1ccc(F)cc1`, the displacement is -0.2%.

For `CCOc1ccc(-c2nc3cc(NC(=O)c4cccc([N+](=O)[O-])c4C)ccc3o2)cc1`, the displacement was determined as 5.3%.

`O=[N+]([O-])c1ccc(N2CCCC2)c(Cl)c1N1CCCC1`: the displacement came out at 4.2%.

For the compound `O=c1c2c([nH]n1-c1ccccc1)CCC2`, the displacement is -1.6%.

For the compound `Cc1cccc(-n2c(C)cc(/C=C3/SC(=O)NC3=O)c2C)c1`, the displacement is -10.9%.

For `CCOC(=O)c1cccc(NC(=O)C(C)Oc2ccc(Cl)cc2C)c1` (stereo not given), the displacement was 3.8%.

For the compound `COc1ccc(OC)c(N(CC(=O)Nc2cc(C)cc(C)c2)S(C)(=O)=O)c1`, the displacement was found to be 13.6%.

With `O=C1c2cccc3cccc(c23)C(=O)N1CC1CCN(S(=O)(=O)c2cccs2)CC1`, the displacement was determined as 11.7%.

For `COc1ccc(/C=C2\C(=O)N(c3ccc(S(N)(=O)=O)cc3)N=C2C)cc1Br`, the displacement is -14%.

As for `C=CCN1C(=O)/C(=C\C(C)=C\c2ccccc2)SC1=S`, the displacement was 19.4%.

For `O=C(O)c1c2c(nc3ccccc13)CCCCC2`, the displacement is -0.9%.

In the case of `CCOC(=O)/C(=C\Nc1ccc(F)c(F)c1)[N+](=O)[O-]`, the displacement was -4.8%.

For the compound `C(#CC12CC3CC(CC(C3)C1)C2)CN1CCOCC1`, the displacement was -3.1%.

Take `O=C(CN(c1cccc([N+](=O)[O-])c1)S(=O)(=O)c1ccccc1)Nc1ccccc1Br`: the displacement was -0.5%.

For `CC(=O)Nc1ccc(S(=O)(=O)N2c3ccccc3C(C)=CC2(C)C)cc1`, the displacement worked out at 27.5%.

For `CC(=O)Nc1sc2c(c1C(=O)Nc1ccc(Br)cc1)CCCC2`, the displacement worked out at 22.4%.

For `COc1ccc(CNC(=O)c2ccc(F)cc2)cc1`, the displacement is -7.4%.

On to `CN(C)S(=O)(=O)N=C1C=CC(=NS(=O)(=O)N(C)C)C=C1`, for which the displacement is 12.2%.

For `COC(=O)C1=NNC2C(=O)N(c3ccc(Cl)cc3)C(=O)C12` (stereo not given), the displacement was -5.1%.

Regarding `CCCOC(=O)c1c(N)sc2c1CCC2`, the displacement was found to be 6.2%.

As to `CCOc1cc(C(=O)Nc2sc(C(=O)N(CC)CC)c(C)c2C(=O)OC(C)C)cc(OCC)c1OCC`, the displacement was found to be 5.2%.

`O=C1N/C(=N/N=C/c2ccco2)SC1Cc1ccc(Cl)cc1Cl` (stereo not given): the displacement amounted to 3.9%.

On to `Cc1ccc(C)c(Nc2nc3ccccc3c3ccccc23)c1`, for which the displacement came to 2.2%.

Regarding `CCOC(=O)C(=O)NCc1ccc(Cl)cc1`, the displacement came to 11.2%.

On to `Nc1ncnc(Nc2ccc3ccccc3c2)c1[N+](=O)[O-]`, for which the displacement came to 17%.

For the compound `Cc1[nH]n(-c2ccccc2)c(=O)c1/C=N/NC(=O)CSCc1ccc(Cl)cc1`, the displacement is -19.5%.

In the case of `O=C1C(Nc2ccc(F)cc2)=CC(c2ccc([N+](=O)[O-])cc2)N1c1ccc(F)cc1` (stereo not given), the displacement is -0.8%.

As to `COC(=O)c1ccc2c(c1)C1C=CCC1C(c1ccc([N+](=O)[O-])cc1)N2` (stereo not given), the displacement was -4.6%.

Take `N#C/C(=C/c1cn(CC(=O)O)c2ccccc12)C(=O)Nc1cccc(Br)c1`: the displacement was -3.6%.

As for `NC(=S)NNC(=O)COc1ccccc1`, the displacement is -4%.

Take `O=[N+]([O-])c1cc(-c2nnc(-c3ccc(Cl)c([N+](=O)[O-])c3)o2)ccc1Cl`: the displacement worked out at 6.8%.

In the case of `COc1ccc(/C=C(\NC(=O)c2ccccc2)C(=O)NCC(C)C)cc1OC`, the displacement worked out at 11.2%.

Consider `COc1ccc(-c2cc(=O)c3ccccc3o2)cc1`, for which the displacement was found to be 12.2%.

Consider `Cc1ccccc1NC(=O)CCC(=O)N/N=C/c1cccs1`, for which the displacement stood at 3.9%.

In the case of `CCCc1[nH]nc2c1C(c1ccccc1Br)C(C#N)=C(N)O2` (stereo not given), the displacement is 2.8%.

`N#C/C(=C\c1ccc(-c2ccccc2)o1)C(=O)N1CCCCCC1`: the displacement was -52.8%.

As to `COc1ccc(N2C(=O)C3C4C=CC(C4=C(C)C)C3C2=O)c([N+](=O)[O-])c1` (stereo not given), the displacement worked out at 11.2%.

In the case of `O=C(CCC1CCCCC1)Nc1ccc(S(=O)(=O)Nc2nccs2)cc1`, the displacement is -7.2%.

With `O=C(NCCNc1ccc([N+](=O)[O-])cc1Cl)c1cccc(Br)c1`, the displacement came to 10.8%.

Regarding `O=C(Nc1cccc(Cl)c1)c1ccc(CN2CCN(c3ccccc3)CC2)cc1`, the displacement was determined as 14%.

As to `CC(=O)NC1=NN(C(C)=O)C(c2ccc(F)cc2)S1` (stereo not given), the displacement is -9%.

Regarding `CCOC(=O)CNC(=O)C12CC3CC(C1)CC(c1ccc(C)cc1)(C3)C2`, the displacement was -3.4%.

For the compound `COc1ccc(NC(=S)NC(=O)/C=C/c2ccc([N+](=O)[O-])cc2)cc1`, the displacement stood at 29%.

Consider `Cc1ccc(/C(N)=N/OC(=O)CCc2ccccc2)cc1`, for which the displacement is 5%.

`COc1cc(/C=C(/NC(=O)c2ccccc2)C(=O)NN)cc(OC)c1OC`: the displacement was -4.8%.

Turning to `OC1CCNC(=S)N1c1ccccc1` (stereo not given), the displacement was 13.6%.

Regarding `O=C1CC(c2ccccc2)CC(O)=C1C=NCc1ccc(F)cc1` (stereo not given), the displacement was 10.7%.

With `CCC(=O)NC(c1ccccc1Cl)c1c(OC(C)=O)ccc2ccccc12` (stereo not given), the displacement is -5.8%.

As to `CC1CCCC(C)N1C(=O)c1ccc(I)cc1` (stereo not given), the displacement stood at 2.2%.

Turning to `O=C(COc1ccccc1[N+](=O)[O-])Nc1ccc(N2CCOCC2)c(Cl)c1`, the displacement worked out at 12.3%.

Consider `CC(=O)Nc1cccc(NC(=O)c2cccc(I)c2)c1`, for which the displacement was -1.5%.

`COc1ccc(NC(=O)Nc2ccc(Cl)c(Cl)c2)cc1`: the displacement was -4.4%.

As to `O=C(c1nn2c(c1Cl)NC(c1ccccc1)CC2C(F)(F)F)N1CCN(c2ccc(F)cc2)CC1` (stereo not given), the displacement worked out at 10%.

In the case of `CCOC(=O)c1c(-c2ccc(Br)cc2)csc1NC(=S)NC(C)=O`, the displacement was determined as 7%.

Consider `COc1ccc(C2Nc3ccccc3C(=O)N2Cc2ccco2)cc1Cn1cc([N+](=O)[O-])cn1` (stereo not given), for which the displacement stood at 15.2%.

With `Cn1ncc(Cl)c1C(=O)N(C(=O)c1c(Cl)cnn1C)c1ncccn1`, the displacement is -53.3%.
